# According to the supplement of paper PMC11417369:
# Some of the results follow.
# Test system: PF3D7_0420300 AP2 domain 1 (GST-tagged)
# Test: gcPBM binding intensity (ln(normalized median fluorescence intensity)); higher = stronger DNA binding
# Procedure, shortened: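 Binding of GST-tagged P. falciparum DNA-binding domains, expressed in E. coli and used at about 25 μg on average, was carried out for 1 h in 1× PBS containing 1% milk, 0.2 mg/ml BSA, 0.5% salmon testes DNA and 0.03% Triton X-100. The target was an Agilent 4 × 180k array of primer-extended double-stranded 36-bp intergenic genomic probes plus negative controls, read with Alexa488 anti-GST antibody at 488 nm. Binding intensity is the highest Masliner-normalised natural-log median intensity across replicate spots of either probe orientation.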
row,Sequence,gcPBM binding intensity (ln)
1,AAGAATTATAGAAACACACATACATACAGACATACA [CACACA_site1943],9.82
2,AATACACACCTGTGGGTGCTTATAATAAGCCACAAA,9.35
3,TATTTTTTTATTTATTGTACTTTAAAAAAAATTAAA [XGTACX_site6167],8.75
4,TAACAAATATTATTTTGTACATAATATATATATATA [XGTACX_site6898],9.03
5,TTATAAAAATATTACGCACACACAAACTTATTCATT [CACACA_site1970],9.76
6,ATATATTTATATTATACACACAAAAATATTTTGTAT [CACACA_site6262],9.4
7,TATATATATTAATTTATTTATTTGTTTATTTATTTA [CACACA_negctrl_site185],9.27
8,ATATAATAATATTATACATGCAAAATATGTTCTTCA [TGCATGCA_site115],9.19
9,AGACTATCATTTTTTTAACACACAAAAAAAATAAAA [CACACA_site9173],9.27
10,ATCGCATATACATTATATTTTATAATAATTATTTTT [GTGCAC_negctrl_site48],9.51
11,ATAATGTATATTATTGCACACATATATAAAATTATG [CACACA_site8280],9.36
12,TAAATAAATACATACACACACATACCTATATTTATA [CACACA_site7466],9.93
13,TTTTATAAAAACAAAAACAAAGGCACTTTCTAAAGA [XGTACX_negctrl_site130],9.19
14,AATATAAATATAAATATAAATATATATATATATATA [TGCATGCA_negctrl_site603],8.91
15,TGTATACACATATGTACACACATATAGATGTATATG [CACACA_site7447],9.52
16,AATTTTATTTAAAGTGCATGTAAAATTAAAACTTTT [TGCATGCA_site989],8.88
17,AAAGACAAAAGGAATTGTACATAATATATAAAATAT [XGTACX_site2923],9.34
18,CACAAAAGTAAGCACGCACACACAACATGAAATAAA [CACACA_site7938],9.87
19,CATTTTTTGTAAAATCGTACATATACATAAAGTGGT [XGTACX_site3423],9.08
20,GGGAAACGATTTAATACACACACGTATTATATATAT [CACACA_site1160],9.64
21,ATATAAAATATGAGTAGTACATATTTTCTCATCTTA [XGTACX_site8595],9.07
22,TATGAATTTATCTACAACATTTGAAATAAATTAAAA [CACACA_negctrl_site79],8.74
23,AACTAATAGTATATTACATGCAAAAGTAAAAGTAAA [TGCATGCA_site411],9.5

row,Sequence,gcPBM binding intensity (ln)
1,CTCACAATACTTACATGTACATATTATATATATAAA [XGTACX_site1880],9.4
2,GTTGAAATAAAATTAGTGCATATATAAATATATATA,9.05
3,ACTGAAAAAAGAAATACACACATTCTGGATCAGATA [CACACA_site7760],9.56
4,TCATTCTTGTGTTTATGTACACATATTTATATTGTA [XGTACX_site710],9.64
5,TTATCATTTTTGGAATGTACTTACATTAAATATTTA [XGTACX_site4034],9.09
6,TATATGCAAAATGTCACACATGTGATAAATACATAT [CACACA_site4302],9.48
7,GGAACCATCCAAAAAAAAAAAAAAAATAATAATAAT [CACACA_negctrl_site383],8.86
8,ACATGTACAGAAATTTATATATATATATATATATAT [CACACA_negctrl_site1584],9.18
9,ATTATTATGTATTGCCGTACACATATTATCACAGAA [XGTACX_site3740],9.34
10,TCTTCATATATAATTGTACACACAAAAACGACATTG [CACACA_site8645],9.62
11,TATTATAATTAATATACACACGCTTATATATATATA [CACACA_site75],9.36
12,TATAAATAAACATTTACACACTCTTATAATAAATAT [CACACA_site1679],9.25
13,ATGCAAACTAAAAGACGTACAGAAAAGTATCATACT [XGTACX_site8766],9.26
14,TGATTATTTTATATTTGTACACATATCATATAAAAA [XGTACX_site5868],9
15,ACATAATATTGAAGAAGTACAAATTTTATTTATTAT [XGTACX_site4113],9.17
16,ACGTTTTTGAGTAGTACACACACAATAAGGATGGAT [CACACA_site9044],9.77
17,CCTCATATTATAGACACACACAAAAAAAATAAAAAA [CACACA_site180],9.74
18,AATATAATATATATTAGTACATATATATATATATAT [XGTACX_site870],9.06
19,TCATTATTATATAATTGTACATAATAATTATATCCA [XGTACX_site1801],9.06
20,ATGTATGTGTATATATGTACATAATATATATCTTTT [XGTACX_site8666],9.38
21,CCCAGGAATATAAAATGTACATAAAAAATACAAATT [XGTACX_site1708],9.37
22,AGTACATTATAGAATACACACCTATACATTTATATA [CACACA_site6391],9.46
23,TAAGCACAAGCACAAGCACACATTTATATATATATA [CACACA_site883],9.24

row,Sequence,gcPBM binding intensity (ln)
1,TTTTTTTTTTTTGGATGTACTTAATGAAAATGTTAC [XGTACX_site8980],8.93
2,TATTTGTGAAGAAATTGTACTCATATCTACATTTAT [XGTACX_site2245],9.12
3,TCTTTGTATATATGTTCATTTGTAATATATATTCAT [TGCATGCA_negctrl_site467],9.42
4,ATAATAATATAAAAATGTACATATATTTATAATTGT [XGTACX_site3429],9.23
5,ATTTATTGACTATTTACACACATATTTATTAAAATA [CACACA_site4980],9.5
6,TACGCTCCCAGACACACACACACACCGATATAATAT [CACACA_site8098],10.3
7,TATTATATTATGTGATGTACATATTTATATAGGCCC [XGTACX_site4746],9.06
8,TATTACATACCTTATTGTACAAATTATATATTAAAG [XGTACX_site7334],9.08
9,ATTCAGTTATATAATACACACATATATTGACATTAT [CACACA_site2723],9.5
10,ACAGTATCTGGTAGCTGTACGAGTCGTAGAGAGTAG [XGTACX_site2041],9.3
11,AGGTGCAAAAATAAAACATGCAAAAATAAAAATGAA [TGCATGCA_site502],9.35
12,AATAATTAAATAAGAGTGCATGAAACAGGAAATTTC,9.73
13,TAATAAAAAATATATACACACAAATAAATAAATAAA [CACACA_site4037],9.83
14,AATAGTCGTGTGCATACACACCTTAACTATAATATA [CACACA_site6636],9.38
15,AAGAAATAAAGCAAAACATGCACTCGAAAATGTTTT [TGCATGCA_site1014],9.41
16,TATTGTTAAAATGAATAATTAAAACAGTAATGAATA [XGTACX_negctrl_site170],9.18
17,TTAGCAACTATTACTACACACATTTTTATATAACTT [CACACA_site6762],9.67
18,ATGTCTAATTTTGATGCACACTTTTGTGCAATTAAA [CACACA_site5589],9.14
19,TATATATGTTTTTATGTACACACTTTTAACCTAAGA [CACACA_site1149],9.38
20,CGCATGCAATGTTAATGTACATATATATATATATGT [XGTACX_site3316],9.14
21,TTTTTTTTTTTTTGATGTACAATTAATATTATAAAA [XGTACX_site6969],8.94
22,AGTAATAAATAATTTACACACATATTATATCATCAC [CACACA_site1890],9.7
23,CATTTTAAAGAAAATACACACAAAAATAGATATATA [CACACA_site6773],9.68

row,Sequence,gcPBM binding intensity (ln)
1,ATTTCTTTTTTATTGAGTACATATGACCATGTTCAA [XGTACX_site5365],9.3
2,GAAAAAAATGAAATTAGTACTTATCTTAAATTTTTA [XGTACX_site1018],8.8
3,AAAAATATATAATAAAGTACACATAAATGAATAAAT [XGTACX_site329],9.8
4,TAGTATAATATGAACACACACACACGCACAAAAAAA [CACACA_site7035],10.1
5,TGTAAGCACATACAAACACACAACATTATTTTTATC [CACACA_site2186],9.62
6,ATCGTTATATAAAAATGTACTTATAAATTGTATACA [XGTACX_site6664],9.2
7,CAACATTTGATAAACACACAGAAGTATAAATATATA [CACACA_site2365],9.53
8,AAAGGAAAAATCCAAGTGCATTATTATTTTCACAAA [GTGCAC_site9995],8.95
9,TGTTCTTTGTTCAGCGCATGTAAAATAAAATAAAAT [TGCATGCA_site629],9.04
10,TTTTTTTTTGAATACAGTACACAAGTGTTAAGTTTA [XGTACX_site7069],8.89
11,GATTGATTATATGTGTGTACTTATATGTTAAAAAAA [XGTACX_site4784],9.46
12,TATGAATATCTATACACACACATATATATACCCACT [CACACA_site4963],9.94
13,TATTTGAAAACATAGGTGCACATTATTTTATAATCT [GTGCAC_site9947],9.26
14,GAAAGAATAAAATTTACACACATATAAATATACATA [CACACA_site7125],9.45
15,AAAGGTGTCATATATGCACACAAAAGTAACACGCAC [CACACA_site8051],9.66
16,TTTATTCTTGAGTATTGTACATATGTGTTTGTATAT [XGTACX_site5706],9.38
17,AGGAGGATGCATATGGCACACATTATGAAACTGTCG [CACACA_site299],9.26
18,TTTTCCCTCTTATTCACACAAAAAAAATAAAATAAA [CACACA_site4656],8.9
19,ACACTAACATCATATCGTACATTTGTTAATTTATAA [XGTACX_site8654],9.45
20,TATTTATTTTTTTTTGTGCACTTAATATAATCTTAC,9.24
